{
  "source": "ChEMBL document CHEMBL4888484",
  "about": "“Replenishing the malaria drug discovery pipeline: Screening and hit evaluation of the MMV Hit Generation Library 1 (HGL1) against asexual blood stage Plasmodium falciparum ,using a nano luciferase reporter read-out” (2022)",
  "note": "Among all 150,000 compounds or so, about 540 (0.36%) showed an effect of 50% or more. This is one part of the list.",
  "data": [
    {"system": "Plasmodium falciparum", "experiment": "Primary screen in NF54 nanoGlo assay, in single point, at 2uM, 72h; a lower Z score goes with more inhibition", "type": "functional, Erythrocyte", "details": "timepoint 72 hour", "units": {"% Inhibition": "%"}, "values": [
      {"smiles": "COc1ccccc1NC(=O)COc1ccccc1C(=O)c1cnn(-c2ccccc2)c1", "% Inhibition": -18, "Z score": 2.87},
      {"smiles": "CCN(CC(F)(F)F)C(=O)COc1cncc(Br)c1", "% Inhibition": -4, "Z score": 0.84},
      {"smiles": "O=C(C[C@H]1C(=O)Nc2ccccc2N1C(=O)c1ccco1)Nc1ccc(Cl)c(Cl)c1", "% Inhibition": -4, "Z score": 0.55},
      {"smiles": "CCc1ccc(OCC(=O)c2ccc3c(c2)N(Cc2ccc(C(=O)NCCOC)o2)C(=O)CO3)cc1", "% Inhibition": 2, "Z score": -0.37},
      {"smiles": "CCOC[C@H]1CCCN1Cc1nncn1C(C)C", "% Inhibition": -1, "Z score": 0.28},
      {"smiles": "O=C(NCCN1Cc2cc(F)ccc2OCC1=O)c1cccc(OC(F)(F)F)c1", "% Inhibition": -10, "Z score": 1.79},
      {"smiles": "CN(CC(=O)N1CCN(CC2CCCC2)C(=O)C1)S(=O)(=O)c1ccc(C#N)cc1", "% Inhibition": -8, "Z score": 1.08},
      {"smiles": "CCn1nc(C(=O)Nc2ccc(O)nn2)cc1C1CC1", "% Inhibition": -4, "Z score": 0.88},
      {"smiles": "CC(C)c1ccc(N2C(=O)CC[C@@]2(C)C(=O)NC2CCCC2)cc1", "% Inhibition": -11, "Z score": 1.2},
      {"smiles": "CCCN(C)S(=O)(=O)c1cc(-c2nnc(C)o2)co1", "% Inhibition": -10, "Z score": 1.3},
      {"smiles": "COC(=O)CC[C@@H]1CN(Cc2ccccc2F)CC[C@@H]1N1CCN(c2cccc(C(F)(F)F)c2)CC1", "% Inhibition": 8, "Z score": -1.04},
      {"smiles": "CCCN(Cc1ccsc1)C(=O)c1snnc1C", "% Inhibition": -13, "Z score": 1.91},
      {"smiles": "CCC(CC)C(=O)NCc1nc(C)cc(N(C)C)n1", "% Inhibition": -1, "Z score": 0.16},
      {"smiles": "Cc1nc2ccccn2c1CN(C)CCc1cnn(C)c1", "% Inhibition": 0, "Z score": -0.01},
      {"smiles": "C[C@H](NC(=O)Nc1cc2n(n1)CCN(C)C2=O)c1ccc(C#N)cc1", "% Inhibition": -10, "Z score": 1.91},
      {"smiles": "Cc1cc(C(=O)NCCn2c(=O)n(Cc3ccc(F)cc3)c3cccnc32)no1", "% Inhibition": -14, "Z score": 1.58},
      {"smiles": "CC(C)(Oc1ccc2c(c1)CCC2)C(=O)N1CCc2[nH]cnc2[C@@H]1C(=O)O", "% Inhibition": -10, "Z score": 1.25},
      {"smiles": "Cn1ccnc1[C@H]1OCCC[C@@H]1C(=O)Nc1cc2cc[nH]c2cn1", "% Inhibition": -15, "Z score": 2.37},
      {"smiles": "CN(C(=O)c1cnn(-c2ccc(F)cc2F)c1)c1cccc2ncccc12", "% Inhibition": -31, "Z score": 3.65},
      {"smiles": "CCN(CC)C(=O)[C@@H]1C[C@@H](NC(=O)c2ccc(N3CCCC3)cc2)CN1C", "% Inhibition": 3, "Z score": -0.46},
      {"smiles": "CCNc1ncc(-c2nccn2-c2cc3c(cc2OC)n(C)c(=O)n3C)cn1", "% Inhibition": 6, "Z score": -1.16},
      {"smiles": "O=C(Cn1[nH]c2ccccc2c1=O)NC1(Cc2ccc(Cl)cc2)CC1", "% Inhibition": -6, "Z score": 0.86},
      {"smiles": "O=C(c1ccc(F)cc1)C1CCCN(C(=O)C2CCS(=O)(=O)C2)C1", "note": "(stereo unspecified)", "% Inhibition": -14, "Z score": 1.29},
      {"smiles": "CCn1nc(CC(C)C)cc1C(=O)N1C[C@H]2CCC[C@@H]1C2", "% Inhibition": -1, "Z score": 0.24},
      {"smiles": "Cc1cnc(NC(=O)CC2CC3CCC2C3)s1", "note": "(stereo unspecified)", "% Inhibition": -2, "Z score": 0.23},
      {"smiles": "CC(=O)N1CCC([C@H]2c3nccn3CCCN2Cc2ccccc2)CC1", "% Inhibition": 8, "Z score": -1.13},
      {"smiles": "O=C(Nc1nnc(C2CC2)s1)c1cccc(NC(=O)c2ccco2)c1", "% Inhibition": -21, "Z score": 1.95},
      {"smiles": "CC1CN(C(=O)C2CCCN(CC(F)F)C2)C(C)CN1C", "note": "(stereo unspecified)", "% Inhibition": -1, "Z score": 0.22},
      {"smiles": "CC(NC(=O)[C@H]1CC[C@@H](C(N)=O)C1)c1cc(Cl)cc(Cl)c1F", "note": "(stereo partly specified)", "% Inhibition": 4, "Z score": -0.77},
      {"smiles": "Cc1[nH]c2ccccc2c1C(=O)[C@H](C#N)C(=O)c1ccc2c(c1)OCO2", "% Inhibition": -22, "Z score": 2.01},
      {"smiles": "Cc1ccn2cc(C(=O)N(C)CC3CC3)nc2c1", "% Inhibition": -14, "Z score": 1.26},
      {"smiles": "Cc1cccc(NC(=O)Cn2c(=O)n(CCc3cccs3)c(=O)c3ccccc32)c1C", "% Inhibition": 24, "Z score": -2.74},
      {"smiles": "Cc1ccc(C(=O)N2CCN([C@H](C(=O)N(C)Cc3ccco3)C3CCCC3)CC2)cc1", "% Inhibition": -7, "Z score": 0.88},
      {"smiles": "CCC(=O)Nc1c(-c2ccncc2)nsc1C(=O)N1CCN(c2ccccc2C)CC1", "% Inhibition": -10, "Z score": 1.61},
      {"smiles": "CCC[C@H](NC(C)=O)c1nc(-c2c[nH]c3ccccc23)n[nH]1", "% Inhibition": -10, "Z score": 1.25},
      {"smiles": "COC(=O)c1cc(OC)ccc1OC(=O)CN(C)S(C)(=O)=O", "% Inhibition": -9, "Z score": 1.36},
      {"smiles": "CCn1ncnc1-c1nccn1CCc1scnc1C", "% Inhibition": -5, "Z score": 0.96},
      {"smiles": "Cc1ccc(-c2noc(-c3cccn3CC(=O)N3CCCC3)n2)cc1", "% Inhibition": 6, "Z score": -0.95},
      {"smiles": "O=C(c1ccc(Cl)s1)N1CCCCCCC1", "% Inhibition": -6, "Z score": 0.81},
      {"smiles": "Cn1cc(Br)cc(NCC(C)(C)C)c1=O", "% Inhibition": -14, "Z score": 2.13},
      {"smiles": "Cc1cc(NC(=O)[C@@](C)(O)C2CCC2)nn1C(C)C", "% Inhibition": -4, "Z score": 0.68},
      {"smiles": "Cn1c(-c2cccc(Cl)c2)nnc1N1CC[S+]([O-])CC1", "% Inhibition": -10, "Z score": 1.63},
      {"smiles": "O=C(Nc1nccs1)C1C2CCCCC21", "note": "(stereo unspecified)", "% Inhibition": -7, "Z score": 1.03},
      {"smiles": "CC(C#N)C(=O)NCC1CC2C=CC1CC2", "note": "(stereo unspecified)", "% Inhibition": 14, "Z score": -1.82},
      {"smiles": "CC(C)c1cc(C(=O)N2CC[C@]34C(=O)N(Cc5cn(nn5)CCCOc5cccc(c5)[C@H]23)c2ccccc24)on1", "% Inhibition": 5, "Z score": -0.53},
      {"smiles": "CCC1CN(C(CC)C(=O)NCc2ccc(C(C)=O)c(C)n2)CCO1", "note": "(stereo unspecified)", "% Inhibition": 3, "Z score": -0.41},
      {"smiles": "Cc1nn(-c2ccc(F)cc2)c(C)c1S(=O)(=O)N1CCC(C(=O)N2CCN(C)CC2)CC1", "% Inhibition": 0, "Z score": -0.04},
      {"smiles": "CC[C@@H](C(=O)NS(=O)(=O)CC(F)(F)F)c1ccc(F)cc1", "% Inhibition": -16, "Z score": 1.59},
      {"smiles": "CCN(CCCCO)C(=O)c1ccc(-c2cnccc2N)cc1", "% Inhibition": -3, "Z score": 0.52},
      {"smiles": "COCCN(C)C(=O)c1nn(C)c2c1COCC2", "% Inhibition": 6, "Z score": -0.81},
      {"smiles": "Cc1cc(C(=O)N2CCOc3ccc(N(C)C)cc3C2)[nH]n1", "% Inhibition": 4, "Z score": -0.77},
      {"smiles": "CC(C)c1nccc(C(=O)N[C@H]2CCOC[C@@H]2OCc2ccccc2)n1", "% Inhibition": -3, "Z score": 0.69},
      {"smiles": "O=C(c1cnc2ccccc2n1)N1CCc2n[nH]cc2C1", "% Inhibition": -3, "Z score": 0.56}
    ]}
  ]
}
